# The supplement of paper PMC10126150
# Sequences with one replicate were seen in a single cluster, so their values are uncertain.
# System: ATP
# Assay: switch fluorescence ratio, 500 uM ATP over buffer (Cy3 cluster intensity, sum of 5 cycles each) (fold (ratio)); higher = stronger signal-on switching upon ATP binding; sequences stand for … in TCGTCGGCAGCGTCAGATGTGTATAAGAGACAGTTTTTTTTTTTTTTTTTTTTTTTTT…TC
# Settings: aptamer strand: ATP DNA aptamer (quencher-CACCTGGGGGAGTATTGCGGAGGAAGG + anchor), 100 nM annealed; ATP concentration: 500 uM; one replicate
# Procedure, shortened: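 Clusters carrying Cy3-labelled switching strands on a modified Illumina MiSeq flow-cell were annealed to 100 nM quencher-labelled ATP aptamer and imaged in selection buffer. They were imaged again after 15 min with 500 uM ATP at 22 °C, over five buffer/ATP cycles with NaOH stripping and re-annealing in between. For each cluster, the fluorescence ratio is the summed Cy3 intensity of the target cycles divided by that of the buffer cycles, averaged per switch-domain sequence. Clusters outside 100-1000 RFU were left out.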
# 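Also: ATP exposure 15 min at 22 °C before imaging.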
row,Sequence,switch fluorescence ratio
1,GCCCCTATTC,1.04
2,GCCCGAGTTC,0.993
3,GCCCGGTCGT,1.01
4,GCCCGTAAGT,1.05
5,GCCCGTAGCG,1.17
6,GCCCTAATCG,0.993
7,GCCCTATCAC,1
8,GCCCTATTGA,0.991
9,GCCCTGGGAT,1.03
10,GCCGAGAACG,1.06
11,GCCGAGGGCT,0.996
12,GCCGAGGTAA,1.04
13,GCCGATTGGT,0.985
14,GCCGCAGGGT,1.01
15,GCCGCCCCGT,1.05
16,GCCGCGGCA,1.02
17,GCCGCGTGCA,1.05
18,GCCGCTCGAT,0.963
19,GCCGGATGAC,1.02
20,GCCGGATTCT,1.03
21,GCCGGCTACA,0.999
22,GCCGGGACTC,0.964
23,GCCGGGCGTC,0.985
24,GCCGGGGGGT,1
25,GCCGGGGT,0.992
26,GCCGGTCTCT,0.977

row,Sequence,switch fluorescence ratio
1,GCCGGTGTAC,1.18
2,GCCGTAAAAG,1.03
3,GCCGTAGATA,0.974
4,GCCGTAGGGT,1.01
5,GCCGTATTTT,0.997
6,GCCGTCTACC,1.03
7,GCCGTCTACT,1.01
8,GCCGTGCTTT,1.01
9,GCCTAACGCC,1.11
10,GCCTAATAA,1.07
11,GCCTACGTGC,1.09
12,GCCTAGCGAC,1.13
13,GCCTATAATA,0.999
14,GCCTATGAGA,1.03
15,GCCTATGTGC,0.977
16,GCCTATTCTC,0.993
17,GCCTCGCGAC,2.13
18,GCCTCGCTCG,0.993
19,GCCTCTAACT,0.991
20,GCCTCTCTAA,1
21,GCCTGAGCAT,1.04
22,GCCTGGGCTC,0.981
23,GCCTGTGTCA,0.975
24,GCCTTATTTG,1.01
25,GCCTTCACTA,1.03
26,GCCTTCTGCT,0.994

row,Sequence,switch fluorescence ratio
1,GCCTTGCGTG,0.983
2,GCCTTTAACT,1.01
3,GCCTTTAAGC,1.07
4,GCCTTTCCAC,1.17
5,GCCTTTCGTG,1.08
6,GCCTTTGCTT,0.98
7,GCCTTTTCCC,1.06
8,GCCTTTTTAG,1
9,GCGAAACTTT,0.992
10,GCGAACTATA,1.03
11,GCGAAGGCCT,1.11
12,GCGAATAGGA,1.03
13,GCGAATCTGG,0.979
14,GCGAATGAGG,0.957
15,GCGACAAGCC,1.09
16,GCGACACGAA,1.13
17,GCGACAGCGC,1.01
18,GCGACATCCG,1.03
19,GCGACTGATA,1.03
20,GCGACTTAAA,1.03
21,GCGAGAAGCA,1.03
22,GCGAGACCCT,1
23,GCGAGACGGG,1.04
24,GCGAGCATGT,0.999
25,GCGAGGACTA,1.04
26,GCGAGGTCGT,0.958

row,Sequence,switch fluorescence ratio
1,GCGAGTCTGG,0.979
2,GCGATCCCAA,1.09
3,GCGATCGTGA,1.06
4,GCGATCTATC,0.98
5,GCGATGGGT,1
6,GCGATGTGCA,0.99
7,GCGATTGAAG,0.967
8,GCGCAATGCA,2.39
9,GCGCACTTCC,1.9
10,GCGCAGAGGC,1.06
11,GCGCAGTCAC,2.12
12,GCGCATGGTG,1.05
13,GCGCATGTA,1.04
14,GCGCCAAGTG,1.08
15,GCGCCCTCTT,0.967
16,GCGCCGAAAG,1.01
17,GCGCCGGTTC,0.981
18,GCGCGCAAAG,1.01
19,GCGCGCCCTG,1
20,GCGCGCGTTT,0.954
21,GCGCGGCAGG,1.05
22,GCGCGTATCT,1.03
23,GCGCTGAAAG,1.02
24,GCGCTTCCTG,1.02
25,GCGCTTTTTC,1.09
26,GCGGAACGCT,0.996

row,Sequence,switch fluorescence ratio
1,GCGGACCCGC,0.98
2,GCGGACGGC,0.973
3,GCGGATAACT,1.04
4,GCGGCAATGC,3.31
5,GCGGCAGCCG,0.984
6,GCGGCCTCAT,1.03
7,GCGGCGCCGC,1.08
8,GCGGCGTA,0.945
9,GCGGCGTTCG,0.983
10,GCGGCTATCA,1.02
11,GCGGCTCATA,1.03
12,GCGGCTGAAG,0.969
13,GCGGCTGTGT,0.977
14,GCGGGAGTAA,1.08
15,GCGGGCCTGC,0.966
16,GCGGGCGGCA,0.985
17,GCGGGGCCAA,0.997
18,GCGGGGCCGT,1.06
19,GCGGGTATTT,0.987
20,GCGGGTGC,1.08
21,GCGGGTGCGC,1
22,GCGGTAAACG,1.06
23,GCGGTAAAGC,1.03
24,GCGGTAAGTG,1.01
25,GCGGTAGGAT,0.969
26,GCGGTAGTAG,0.989

row,Sequence,switch fluorescence ratio
1,GCGGTATCGC,0.983
2,GCGGTCCGCC,1.08
3,GCGGTCGGGA,1.02
4,GCGGTGATTT,0.958
5,GCGGTTAAAA,0.995
6,GCGGTTCGGT,0.975
7,GCGGTTCTCG,0.983
8,GCGGTTGTAA,1.04
9,GCGTAACAGG,1.08
10,GCGTAACTCA,1.05
11,GCGTAAGGCT,1.05
12,GCGTAATGTG,1.02
13,GCGTACAGCA,1.01
14,GCGTACCGCG,1.02
15,GCGTACGATT,1.01
16,GCGTACGTTG,1.05
17,GCGTAGACGT,0.986
18,GCGTATTGAA,0.995
19,GCGTATTTGA,1.03
20,GCGTCCGCTT,1.42
21,GCGTCCGGT,1.05
22,GCGTCCTCGG,0.991
23,GCGTCCTCGT,0.985
24,GCGTCCTGGA,0.988
25,GCGTCCTTAG,1.01
26,GCGTCGATGC,1.07

row,Sequence,switch fluorescence ratio
1,GCGTCGCATA,0.981
2,GCGTCTGTT,0.975
3,GCGTGAAGTC,1.03
4,GCGTGAATTG,1.01
5,GCGTGACGTT,0.981
6,GCGTGACTGG,1.03
7,GCGTGAGCAA,1.03
8,GCGTGATCCT,1.02
9,GCGTGCGCGC,0.988
10,GCGTGCTAAC,1.03
11,GCGTGCTCAC,1.01
12,GCGTGGCGGA,1.04
13,GCGTGGGAAG,1.01
14,GCGTGTCCAG,0.983
15,GCGTGTTATA,1.12
16,GCGTGTTCTT,0.996
17,GCGTTACGTG,0.954
18,GCGTTAGCT,1.01
19,GCGTTAGTAA,0.988
20,GCGTTCAAG,0.972
21,GCGTTCAATT,0.99
22,GCGTTCAGAA,0.987
23,GCGTTCTTGC,0.959
24,GCGTTGAGCG,0.978
25,GCGTTTATTT,1.02
26,GCTAAAGCTC,1.01

row,Sequence,switch fluorescence ratio
1,GCTAACTGA,1.1
2,GCTAACTTGC,1.01
3,GCTAAGTCTT,1.01
4,GCTAATCTCC,2.11
5,GCTAATTTG,0.974
6,GCTACAAACC,1.11
7,GCTACACGGT,1.03
8,GCTACCATG,0.994
9,GCTACCGCGT,1.08
10,GCTACCTAA,1.01
11,GCTACTACTC,1.57
12,GCTAGAAAAT,0.917
13,GCTAGAAGA,1.04
14,GCTAGCATCG,0.995
15,GCTAGCCCTG,1.04
16,GCTAGTACCG,0.968
17,GCTAGTGACT,0.985
18,GCTATAATGG,0.979
19,GCTATCCTTG,0.99
